Laboratory results from PubChem BioAssay (Tox21).
Several values for one entry are separate records, joined by “and”; a condition that tells them apart may be missing. Equal entries are not always repeated. Inconclusive means that the source gave no clear call. Such entries were picked first, then a sample of the others. Potencies beside an inconclusive call are fits to weak or partial responses and may not hold up. Some compounds were tested as several samples or in several runs, with calls that do not always agree. Activity calls are given as the source filed them. Calls follow the shape of the dose curve; as a rule, active = well fitted curve in the direction sought with a large enough effect in the repeat runs; inconclusive = weak or mixed curves; inactive = no such curve, though single readings can be large; an effect the other way counts as inactive or inconclusive.
Potency is read from the fitted curve at half-maximal effect; tags tell the direction and shape of the fitted curve.

Assay: qHTS assay to identify small molecule antagonists of the glucocorticoid receptor (GR) signaling pathway - cell viability counter screen (AID 720693); also: nearly all actives have a fitted effect of over 55% in size
Conditions: GR-bla HeLa viability, CellTiter-Glo luminescence, 18 h, with 5 nM dexamethasone present; series mostly up to 58.5 µM
In the case of `Cc1ccccc1C(OCCN(C)C)c1ccccc1` (stereo not drawn), the Potency is reported as inconclusive: 0.0425 µM [rising, partial curve, poor fit]. With `c1ccc(C(O[C@H]2CCCN(CCc3ccc4c(c3)OCO4)C2)c2ccccc2)cc1` the Potency was inconclusive: 21.3 µM [cytotoxic, partial curve]. For `Nc1ccc(S(=O)(=O)Nc2nccs2)cc1`, the Potency was inconclusive: 12.4 µM [rising, single point]. In the case of `CN1[C@@H]2CC[C@H]1CC(OC(=O)C(CO)c1ccccc1)C2` (stereo partly drawn), the Potency is reported as inconclusive: 0.0952 µM [rising, single point]. For `CC(C)CC(C)(N)C#N` (stereo not drawn), the Potency was inconclusive: 5.56 µM [rising, single point].

Assay: qHTS assay for identifying genotoxic compounds that show differential cytotoxicity against isogenic chicken DT40 cell lines with known DNA damage response pathways - wild type cell line (AID 743012); also: nearly all actives have a fitted effect of over 60% in size
Conditions: DT40 wild type chicken cells viability, CellTiter-Glo, 40 h; activity change, negative = cytotoxicity: at 68.4 µM (top of the series) unless noted
Method in brief: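 Endpoint: CellTiter-Glo luminescence, 30 min RT. Cells: wild type DT40, 300/well. Exposure: compounds in DMSO, 40 h, 37 C/5% CO2, after ~0.5 h pre-incubation.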
In the case of `N#C/C(=C1/SC[C@@H](c2ccc(Cl)cc2Cl)S1)n1ccnc1`, the Potency is reported as active: 21.1 µM and active: 13.3 µM and active: 26.6 µM. In the case of `Fc1ccc(Br)cc1`, the Potency is reported as inconclusive: 21.9 µM [rising, full curve, poor fit]. In the case of `CCCCC1C(=O)N(c2ccccc2)N(c2ccccc2)C1=O`, the Potency is reported as inconclusive: 68.1 µM [single point].

Assay: qHTS assay for identifying genotoxic compounds that show differential cytotoxicity against isogenic chicken DT40 cell lines with known DNA damage response pathways - Rev3 mutant cell line (AID 743014); also: nearly all actives have a fitted effect of over 55% in size
Conditions: chicken DT40 Rev3-/- viability, CellTiter-Glo, 40 h; series mostly up to 68.4 µM
With `COc1cc(NC(=O)CC(C)=O)c(OC)cc1Cl` the Potency was “inactive and inconclusive: 68.6 µM [cytotoxic, single point]”. For `Cc1ccccc1C(OCCN(C)C)c1ccccc1` (stereo not drawn), the Potency was inconclusive: 33.5 µM [cytotoxic, single point]. For `c1ccc2c(c1)ccc1ccccc12`, the Potency was inconclusive: 47.2 µM [cytotoxic, partial curve, poor fit] and active: 68.6 µM. For `Nc1ccc(S(=O)(=O)Nc2nccs2)cc1`, the Potency was inconclusive: 68.6 µM [cytotoxic]. With `CCCCC1C(=O)N(c2ccccc2)N(c2ccccc2)C1=O` the Potency was inconclusive: 5.45 µM [cytotoxic, full curve, poor fit].

Assay: qHTS assay for identifying genotoxic compounds that show differential cytotoxicity against isogenic chicken DT40 cell lines with known DNA damage response pathways - Rad54/Ku70 mutant cell line (AID 743015); also: nearly all actives have a fitted effect of over 60% in size
Conditions: DT40 Rad54/Ku70 mutant viability, CellTiter-Glo, 40 h; activity change, negative = cytotoxicity: at 66.8 µM (top of the series)
For `COc1cc(NC(=O)CC(C)=O)c(OC)cc1Cl`, the Potency was inconclusive: 43.3 µM [cytotoxic, partial curve]. For `Cc1ccccc1C(OCCN(C)C)c1ccccc1` (stereo not drawn), the Potency was inconclusive: 33.5 µM [cytotoxic, single point]. For `Cc1c(N(C)CS(=O)(=O)O)c(=O)n(-c2ccccc2)n1C`, the Potency was “inactive”. In the case of `c1ccc2c(c1)ccc1ccccc12`, the Potency is reported as inconclusive: 66.7 µM [cytotoxic, single point] and active: 30.6 µM. With `OC[C@H]1O[C@H](O[C@]2(CCl)O[C@H](CCl)[C@@H](O)[C@@H]2O)[C@H](O)[C@@H](O)[C@H]1Cl` the Potency was “inactive”.

Assay: qHTS assay to identify small molecule antagonists of the androgen receptor (AR) signaling pathway - cell viability counter screen (AID 743033; also: nearly all actives have a fitted effect of over 45% in size)
Conditions: AR-bla HEK293 viability, CellTiter-Glo luminescence, 16 h; activity change, negative = cytotoxicity: at 58.5 µM (top of the series) unless noted
With `Cc1c(N(C)CS(=O)(=O)O)c(=O)n(-c2ccccc2)n1C` the Potency was “inactive”. With `N#C/C(=C1/SC[C@@H](c2ccc(Cl)cc2Cl)S1)n1ccnc1` the Potency was inconclusive: 26.8 µM [cytotoxic, partial curve, poor fit] and inconclusive: 15.1 nM [cytotoxic, full curve, poor fit]. For `CN(C)CCOC(c1ccccc1)c1ccccc1`, the Potency was inconclusive: 16.9 nM [cytotoxic, full curve, poor fit]. In the case of `c1ccc2c(c1)ccc1ccccc12`, the Potency is reported as inconclusive: 37.9 µM [cytotoxic, partial curve, poor fit] and inconclusive: 61.6 µM [cytotoxic, partial curve, poor fit]. In the case of `O=C(O)C(=O)O`, the Potency is reported as “inactive”.
